# The supplement of paper PMC11417369
# ± gives the standard deviation of the averaged measurements. The list shows a part of the results.
# System: PfAP2-I AP2 domain 3 (GST-tagged)
# Assay: gcPBM binding intensity (ln(normalized median fluorescence intensity)); higher = stronger DNA binding
# Procedure, shortened: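 DNA-binding domains from P. falciparum, fused to GST and produced in E. coli, were put on an Agilent 4 × 180k double-stranded probe array for 1 h in 1× PBS holding 1% milk, 0.2 mg/ml BSA, 0.5% salmon testes DNA and 0.03% Triton X-100. Probes were primer-extended, 36 bp long and drawn from intergenic genomic regions, with negative controls included. After Alexa488 anti-GST antibody detection and a 488 nm scan, binding intensity was set as the highest Masliner-normalised natural-log median intensity across replicate spots of either probe orientation.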
row,Sequence,gcPBM binding intensity (ln)
1,TATACTGTCAATTCTACACACCATAGGGGGAGCATA [CACACA_site1875],9.22
2,TTATTAAATGAAAAATGTACATATAAATGATTATAT [XGTACX_site2788],7.76 ± 0.66
3,GAAATGTGTAGACACGCACACACAAAAAAATATATA [CACACA_site2912],7.77 ± 0.51
4,ATAAAAATATAAACATGTACATAAAAATCTATATAT [XGTACX_site405],8.01 ± 0.54
5,TTGCTTATATTTCTAAAATGTAAAAGACACAAAGGT [XGTACX_negctrl_site225],8.29 ± 0.34
6,TTCTAATATATGCATACACACAAATGTGAATATACA [CACACA_site2142],8.23 ± 0.51
7,TTTTTTATTACTTTGTGTACTTACACAGAACCTTAT [XGTACX_site6038],8.24 ± 0.35
8,AAAAATGCAATTTAATGTACACATAAGATGTTATTT [XGTACX_site6853],7.66 ± 0.6
9,AAAAAAAAAAAAAACACACACACACCCAAATATATA [CACACA_site1169],8.35 ± 0.39
10,ATATATTTATTTATATGTACATAATATTTTTCTCAG [XGTACX_site800],7.9 ± 0.34
11,AATTCTTTTTTCAACACACACACACCCGAAAATATA [CACACA_site3111],8.48 ± 0.16
12,ATATAGGTAATATTTTGTACATATTTTTGGGGTAGT [XGTACX_site5634],8.24 ± 0.69
13,AGATACTTTTTTAAAAGTACAAAAACTTTCGATATA [XGTACX_site959],7.59 ± 0.32
14,ATATTTTTTGTATGTTGTACATAAAATATACATTTT [XGTACX_site6815],7.71 ± 0.42
15,CATACATACATACATACACACATACATATATATATA [CACACA_site8388],9.43 ± 0.25
16,TCTAAAATAGTCCAGAGTACAAGAAACCATAATATA [XGTACX_site5237],7.62 ± 0.57
17,ACATTTATTTTGAATGGTACACTATTATTATGAAAT [XGTACX_site4384],7.78 ± 0.35
18,GACCTACAAAAAGGCACACATATACTCATACATACA [CACACA_site5232],8.32 ± 0.36
19,GTGTAATGCTTATCGGTGCATATATATATATATATA,10.5 ± 0.33
20,AAAAAAAAAAAAGGTACTACACACTATTATCAATAG [XGTACX_site161],7.77 ± 0.38
21,GATAATTTTTGCATATGTACTTAAAAATTAAAAATT [XGTACX_site7037],8.04 ± 0.18
22,TTTTTTAAACGTTTAAATAATTAAATATAAATAAAT [CACACA_negctrl_site1567],7.41 ± 0.58
23,TGAACAACTATTACTGCACACATTCTTACACTATAT [CACACA_site4533],10.1 ± 0.33

row,Sequence,gcPBM binding intensity (ln)
1,AAAAAAGAAACAATCGCATGCAATGTTAATGTACAT [TGCATGCA_site395],7.84 ± 0.74
2,AGGTGTCATATATGCACACAAAAGTAACACGCACCT [CACACA_site472],9.92 ± 0.14
3,TACGCAAAATAAAATCAAAATATAAGGAAAAAAAAA [TGCATGCA_negctrl_site578],7.58 ± 0.73
4,TCTAATAAAATAAATACATGCATACATACATACATA [TGCATGCA_site895],7.76 ± 0.63
5,AGGATTATATATTAATGTACCCGCGTTAATTTTTTT [XGTACX_site2878],7.82 ± 0.49
6,AAATAGAGAAATACAAGTACATACTAAACCTATCTA [XGTACX_site1334],7.49 ± 0.69
7,TAATATTTATCAAGTCGTACATAAAATGTATAATAA [XGTACX_site1103],7.91 ± 0.26
8,ACAAAGAAATATAATACACACAAGAATATATTGGAT [CACACA_site3901],7.9 ± 0.68
9,GTACAATAAGATGTAGCATGCCGTACCTTCACTACG [TGCATGCA_site235],7.72 ± 0.79
10,ATACTGTATGAAAGCACACATACTTATTACTAACAT [CACACA_site4164],8.59 ± 0.18
11,CAAATAACAAAATAATGTACATTTATACTTTTTTTT [XGTACX_site943],7.49 ± 0.42
12,TATACATATTTGTATTGTACATAAACTAAATCTTCA [XGTACX_site610],7.42 ± 0.49
13,TATCTCTACAAAATTTTATTCATTATTCATGTTATA [XGTACX_negctrl_site452],8.09 ± 0.26
14,TTTGTTGTTGTGAAACGTACTCATAGGATGTTGTAT [XGTACX_site5716],8.06 ± 0.42
15,ATATTTTCAATGTTCACACATACACAAAAAAAAAAA [CACACA_site6077],8.16 ± 0.6
16,CTTTTGCCCAAAAAGGTACACACCACAATGTACATA [CACACA_site809],8.04 ± 0.47
17,GTTAATATACATAAACGTACAGAATTATTATGAGTT [XGTACX_site5185],7.61 ± 0.49
18,GCTTGGATATATTAATGTACTTATATATTATGTTGT [XGTACX_site3768],7.92 ± 0.47
19,TAAATAATCGCATAATGTACATATAATTTTTTTTTT [XGTACX_site4880],7.46 ± 0.27
20,AAAATTTTTTTTATTTGTACACAATTCGATACATAA [XGTACX_site4804],8.04 ± 0.52
21,CCAATTCAAATATGCACACAAATTTGAAAACGATTA [CACACA_site3607],8.9 ± 0.092
22,ATATAGTAAAGTTATACACACATGAATTTTCCCATA [CACACA_site7457],7.68 ± 0.72
23,ATATTTTAATTATAAAGTACATAAAAATATATAAAC [XGTACX_site6705],7.92 ± 0.35

row,Sequence,gcPBM binding intensity (ln)
1,TTTTTTATTGTGATACGTATATTATTTTATGATAAA [CACACA_negctrl_site1591],8.04 ± 0.6
2,TAAAAATGTAAACACACACACATAAATATATTTTAT [CACACA_site5397],7.84 ± 0.56
3,AAAGATGGAGTGATATGTACTGATATATTATTATAT [XGTACX_site6500],7.62 ± 0.67
4,AAGCATAAAGTATATAGTACATATATATATATATAT [XGTACX_site2945],9.45 ± 0.63
5,ATCTTTCGTACATGTACACACAGAAAAAAAAAAAAA [CACACA_site2502],8.51 ± 0.092
6,GTGTAATCATATAAGGGTACAAAAAATGTCTAACAA [XGTACX_site8122],8.07 ± 0.72
7,GTTCCCATAAATAAATGTACATATTATATATATATA [XGTACX_site3242],9.15 ± 0.24
8,ATTTTTTTTTTTTTTGAACACACATTATTAATTTTT [CACACA_site7990],7.88 ± 0.5
9,ATATATTTTATATAGTGTACTTTAATTTTTTTTTTT [XGTACX_site5550],7.62 ± 0.42
10,ATATATATATATGTTAGTACTTATATTGAAATGGTA [XGTACX_site1406],9.19 ± 0.57
11,ATAAATAAAACAAAATGTACAAATATTCATATATTC [XGTACX_site1307],7.5 ± 0.62
12,TTTCATTTCACAGACACACACACACCCTATATTTCC [CACACA_site3906],8.25 ± 0.18
13,TTATTTACCTATTATAGTACATATAATTAATATAAT [XGTACX_site5724],7.92 ± 0.16
14,TTTAAAAAAAATATGTGTACTTAATATTTTCATATA [XGTACX_site7421],7.725 ± 0.021
15,TACATATAAATAATAACACACACCTAGGTACATGGA [CACACA_site838],7.72 ± 0.43
16,AGAAAGGAGGAAATAAAAGGACTTCTTTTTTTATAT [CACACA_negctrl_site810],7.52 ± 0.61
17,CATACACAGAAACACACACACATATATATATATATA [CACACA_site4519],9.52 ± 0.37
18,ATTCATATCTACTTCACACACATTTGATCATTCAAA [CACACA_site7207],8.14 ± 0.59
19,AAAATCTATATTAACACACACACAAAAAAAAAAAAA [CACACA_site6738],8.21 ± 0.49
20,ATAGTATTTTTTATTACACACAAATAAAAAGAAAAA [CACACA_site2087],8.11 ± 0.057
21,ATGAAACAGTAACATTGTACTTTTACAAAAAAATAA [XGTACX_site806],7.7 ± 0.33
22,AAAAATAAAATGATGGTGCACATAAAGTATGGTTAC,10.6 ± 0.14
23,ATTGAAAATTATTTACCTTCTTTGAAAGAACAAATG [CACACA_negctrl_site1736],7.5 ± 0.49

row,Sequence,gcPBM binding intensity (ln)
1,ATAAATAAATTTATACGTACACATAATATATATATA [XGTACX_site4634],9.12 ± 0.13
2,TAATTAATATATTTTTGTACTTATATATTTGCGTAT [XGTACX_site340],7.46 ± 0.31
3,AATCCACAAAGACACACACACACATATATATATATA [CACACA_site1269],9.6 ± 0.31
4,TTATAATATATATGTGGTACTTATTTATTTATTTAT [XGTACX_site7572],7.5 ± 0.38
5,TTTTGTAATTTTGTATGTACACATTAAAGTAATATG [XGTACX_site2401],7.92 ± 0.39
6,ATTTTTGATTTTAAAAGTACATAAGTATACTATTTA [XGTACX_site7162],7.61 ± 0.47
7,AAAATTCTTCGGGGGAGTACAAGGATATTCTACGTT [XGTACX_site3974],10.1 ± 0.52
8,TAAAAAAAAAAAAAAAGTACCCATACTATATTACAT [XGTACX_site946],7.54 ± 0.42
9,GTAAAAATTTCATATTCACACACAAAAAAAAAAAAT [CACACA_site8457],7.84 ± 0.43
10,TTACTAAACTTATATGTACACACATATAACATTAAT [CACACA_site8710],8.18 ± 0.34
11,AGTAGTCTGGAGAAGAGTACATAGTATCTGATAACC [XGTACX_site2044],7.88 ± 0.67
12,AAGAATTTTACAAAATGTACTTATGTTTTGTTTTAC [XGTACX_site5632],7.49 ± 0.6
13,TGGGAATAACGACACACACACACACGGATATAAATA [CACACA_site7633],8 ± 0.43
14,TGATTATCCTATATATATTTCATAATGGAAAAAAAT [TGCATGCA_negctrl_site444],7.64 ± 0.45
15,AATGTGGTATTTACAAAAAGGCTTTATACTTAAAAA [XGTACX_negctrl_site566],7.83 ± 0.5
16,AAAAATAGTCTTCTTGCACTTTTTAATTTATTTTAA [CACACA_negctrl_site1322],9.135 ± 0.035
17,TATATTTTGTTTTTGTGTACATATTGGTAGTTATTT [XGTACX_site7659],7.97 ± 0.36
18,CTTTTCATCTTCTTAACACACAAAAAAAAAAAAAAA [CACACA_site3886],8.17 ± 0.54
19,AAGAAAATATAACAAAGTAAAAACATATTATATATA [TGCATGCA_negctrl_site248],7.34 ± 0.34
20,TATATATATTTTTGAAGTACTTATTACACTAGCATT [XGTACX_site8965],8.12 ± 0.54
